Results are given in words; binding and its absence hold for the method and conditions named. In cells and extracts the contact can be indirect. Some entries that bind do so weakly or less than the wild type. For some assays here: Tags and fused reporters may be left off the sequences shown.
What was measured:
Assay in all cases: co-IP; HEK293T cotransfected with the two tagged proteins for 48 h (legends; the methods say 24 h); lysis buffer 50 mM Tris pH 7.2, 150 mM NaCl, 1% sodium deoxycholate, 1% Triton X-100; antibody overnight at 4 °C, protein A/G beads 2 h; co-IP and reverse co-IP; Western blot
[1] = target: T1, GFP-pIRF3 (187–378 amino acids) (porcine) (UniProt Q764M6)
T1 sequence: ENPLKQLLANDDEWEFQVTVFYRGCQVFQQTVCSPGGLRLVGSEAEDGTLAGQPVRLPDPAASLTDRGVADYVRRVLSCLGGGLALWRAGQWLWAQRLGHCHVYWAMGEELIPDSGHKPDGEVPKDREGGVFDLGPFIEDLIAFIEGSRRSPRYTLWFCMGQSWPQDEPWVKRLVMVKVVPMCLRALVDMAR

[2] = target: T2, GFP-pIRF3 (porcine IRF3) (porcine) (UniProt Q764M6)
T2 sequence: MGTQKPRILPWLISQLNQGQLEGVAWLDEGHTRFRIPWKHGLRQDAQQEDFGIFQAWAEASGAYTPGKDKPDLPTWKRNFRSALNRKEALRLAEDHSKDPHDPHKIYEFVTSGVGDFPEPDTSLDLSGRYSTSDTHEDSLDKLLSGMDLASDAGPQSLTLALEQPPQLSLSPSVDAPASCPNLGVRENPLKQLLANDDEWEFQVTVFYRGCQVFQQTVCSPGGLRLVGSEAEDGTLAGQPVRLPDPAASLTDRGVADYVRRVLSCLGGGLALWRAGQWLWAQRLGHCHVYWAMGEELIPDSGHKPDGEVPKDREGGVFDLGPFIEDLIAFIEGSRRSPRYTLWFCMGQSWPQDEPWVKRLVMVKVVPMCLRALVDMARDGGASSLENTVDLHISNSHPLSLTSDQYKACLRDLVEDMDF

[3] = target: GFP-pSTING (191–338 amino acids) (porcine) (UniProt B8XX90)
[4] = target: GFP-pSTING (191–378 amino acids) (porcine) (UniProt B8XX90)
[5] = target: T3, GFP-pSTING (1–190 amino acids) (porcine) (UniProt B8XX90)
T3 sequence: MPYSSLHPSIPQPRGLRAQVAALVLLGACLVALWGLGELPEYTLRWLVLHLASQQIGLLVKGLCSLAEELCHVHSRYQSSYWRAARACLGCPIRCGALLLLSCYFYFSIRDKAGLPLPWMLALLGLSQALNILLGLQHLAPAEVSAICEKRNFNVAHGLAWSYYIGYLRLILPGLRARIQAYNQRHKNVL

[6] = target: GFP-pSTING (1–338 amino acids) (porcine) (UniProt B8XX90)
[7] = target: GFP-pSTING (porcine STING) (porcine) (UniProt B8XX90)
[8] = target: GFP-pSTING L373A (porcine) (UniProt B8XX90)

B1: mCherry-pIKKε (porcine IKKε) (protein, UniProt M9MMN5 1-718)
chain: MQSTVNYLWHTDDLLGQGATASVYKARNKKSGELVAVKVFNTASYLRPREVQVREFEVLRKLNHQNIIKLFAVEETGGSRQKVLVMEYCSSGSLLSVLESPENAFGLPENEFLVVLRCVVAGMNHLRENGIVHRDIKPGNIMRLVGEEGQSIYKLTDFGAARELDDDEKFVSVYGTEEYLHPDMYEQAVLRKPQQKAFGVTVDLWSIGVTLYHAATGSLPFIPYGGPRRNKEIMYRITSEKPAGAIAGIQKRENGPLEWSYTLPVTCQLSTGLQSQLVPILANILEVEQAKCWGFDQFFAETSDILQRVIVHVFSLPQAVLHHVYVHTHNTIAIFLEAVYEQTNVAPQHQEYLFEGHLCVLEPSLSAQHIAHTTASSPLTLFSVASEIPKGLAFRDPALDIPKFVPKVDLQADYNTAKGVLGAGYQALRLARALLAGQELMLRGLHWFVEILQATCKRTLEVTRMALLFLSSSLGNERSSSVAGVQEIQELKRVAEMRSQLRTLAEVLSRCSHNITETQMTLSNLSSELMKNRDQVHEDRSIQQIQCSLDKMCLIYKQFKKSRMRPGLGYNEEQIHKLDKMNFSHLAKRLLQVFQEERVQKYQASLVTHGKRMRLVHETRNHLRLVGCSVAACNTQAQGAQESLSQILDQLAHQLLQDRTRGAQASPPLMATYPNPGLKDLVLHMQELCEEMKLLACDLQDNNRIIEGLNRVPAAPDI
In the case of B1, the binding [1] is reported as “binds”, the binding [2] is reported as “binds” and the binding [3] is reported as “no binding”. For the same binder, the binding [4] was “binds”, the binding [5] was “no binding” and the binding [6] was “no binding”. For the same binder, the binding [7] was “binds” and the binding [8] was “no binding”.

From paper PMC10520887
